Several values for one entry are separate records, joined by “and”; a condition that tells them apart may be missing. Identical values can stand only once. The list shows a part of the results. The main result of the screen is listed elsewhere. These columns were measured beside it and carry no call.
Assays:
Assay in all cases: Primary Screen for Target Class Profiling of Small Molecule Inhibitors of Methyltransferases
[1] = target: Glycine N-methyltransferase (Homo sapiens) (UniProt Q14749); settings: purified enzyme, MTase-Glo SAH luminescence; measured here: GNMT inhibition; at 40 µM; stronger effect = lower value
In short: (§1)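 Each enzyme was assayed with SAM and its substrate. SAH formation detected by MTase-Glo luminescence; single-point 40 uM screen[…].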

[2] = target: Guanidinoacetate N-methyltransferase (Homo sapiens) (UniProt Q14353); settings: purified enzyme, MTase-Glo SAH luminescence; measured here: GAMT inhibition; at 40 µM; stronger effect = lower value
In short: as §1

[3] = target: Histamine N-methyltransferase (Homo sapiens) (UniProt P50135); settings: purified enzyme, MTase-Glo SAH luminescence; measured here: HNMT inhibition; at 40 µM; stronger effect = lower value
In short: as §1

[4] = target: Nicotinamide N-methyltransferase (Homo sapiens) (UniProt P40261); settings: purified enzyme, MTase-Glo SAH luminescence; measured here: NNMT inhibition; at 40 µM; stronger effect = lower value
In short: as §1

[5] = target: Phenylethanolamine N-methyltransferase (Homo sapiens) (UniProt P11086); settings: purified enzyme, MTase-Glo SAH luminescence; measured here: PNMT inhibition; at 40 µM; stronger effect = lower value
In short: as §1
% is scaled to controls: 0 for no effect and ±100 for the full control effect.

| SMILES | activity change, negative = inhibition [1] | activity change, negative = inhibition [2] [%] | activity change, negative = inhibition [3] | activity change, negative = inhibition [4] | activity change, negative = inhibition [5] |
| --- | --- | --- | --- | --- | --- |
| CC(C)Cn1nc(CNC(=O)c2ccccc2C(F)(F)F)c2ccccc21 | 3.11% | 2.56 | 1.78% | -1% | 5.09% |
| CC(C)CCNC(=O)C1(C)Cn2c(ccc2-c2ccco2)C(=O)N1CCCc1ccccc1 (centres undefined) | -10.7% | 0 | 2.02% | -1.61% | -3.89% |
| Cc1c(Cl)cccc1NC(=O)N1CCCC1c1nncn1-c1ccccc1 (centres undefined) | -4.11% | -4.23 | -1.5% | -9.5% | -4.84% |
| CN1C(=O)c2cc(C(=O)Nc3ccc(F)cc3F)nn2CC1(C)C(=O)NC1CCCCCC1 (centres undefined) | -0.959% | 1.94 | -1.29% | 2.23% | 1.2% |
| CCC(C)N1C(=O)c2cc3sccc3n2CC1(C)C(=O)NC1CCCCCCC1 (centres undefined) | -3.5% | 5.07 | -4.85% | -1.39% | -1.49% |
| COc1ccc(CCNC(=O)Cn2ccc3cc(S(=O)(=O)N4CCCCC4)ccc32)cc1OC | -6.25% | 4.88 | 6.92% | -0.246% | 3.77% |
| CO[C@H]1O[C@@H]2O[C@@]3(C)CCC4[C@H](C)CCC([C@H]1C)[C@]42OO3 (some centres undefined) | 4.03% |  | 12.9% |  |  |
| CC1C(=O)N(C)C(=O)c2nc[nH]c21 (centres undefined) | 3.49% | 11.1 | 8.71% | -5.49% | 1.13% |
| CC1CCN(S(=O)(=O)c2ccc3c(ccn3CCC(=O)NC3CCCc4ccccc43)c2)CC1 (centres undefined) | 0.567% | 3.86 | -5.26% | -6.85% | -3.66% |
| O=C(NC1CCC1)c1ccc2nccn2c1 | -4.09% | -3.88 | -4.28% | -7.86% | -4.22% |
| O=C(Nc1cc(F)ccc1F)N1Cc2c(sc3c2CCCC3)-n2cccc2C1c1cccc(F)c1 (centres undefined) | 0.483% | 1.84 | 9.01% | 8.14% | 10.1% |
| Cc1cc2c(cc3n2CC(C)(C(=O)NC2CCCCC2)N(CC(C)c2ccccc2)C3=O)o1 (centres undefined) | -1.22% | 0 | -6.23% | -1.42% | -3.85% |
| CCn1c(C(=O)N(C2CC2)C2CC2)cc2c3c(ncn3C)c(Nc3cc(C)n(C)n3)nc21 | -17.9% | -3.89 | -16.7% | -18.4% | -15.1% |
| O=C1CN(Cc2cccc(F)c2)S(=O)(=O)c2ccccc2N1Cc1ccc(F)cc1 | -3.89% | -8.15 | 3.52% | -12.1% | -6.93% |
| Cc1cn2nc(C(=O)Nc3cccc(F)c3C)cc2c(N2CCCC2)n1 | -4.51% | -5.3 | -33.5% | -9.6% | -13.3% |
| O=C(Nc1ccc(F)cc1F)N1Cc2c(sc3c2CCCC3)-n2cccc2C1c1cccc(F)c1 (centres undefined) | 4.28% | 0 | 5.84% | 2.48% | 7.5% |

| SMILES | activity change, negative = inhibition [1] | activity change, negative = inhibition [2] [%] | activity change, negative = inhibition [3] | activity change, negative = inhibition [4] | activity change, negative = inhibition [5] |
| --- | --- | --- | --- | --- | --- |
| CCCN1C(=O)c2c(C(=O)NCc3cc(Br)ccc3OC)ncn2CC1(C)C(=O)NC1CCCC1 (centres undefined) | -0.601% | 0 | 3.96% | -5.24% | 7.04% |
| C=C1CC[C@@H]2[C@](C)(CO)[C@H](O)CC[C@@]2(C)[C@@H]1C/C=C1/C(=O)OC[C@@H]1O | 0.987% |  | 10.2% |  |  |
| CCC(C)NC(=O)c1ccc2c(=O)n(C)c3nn(Cc4ccc(F)cc4Cl)c(=O)n3c2c1 (centres undefined) | 0.279% | 0.227 | 0.424% | -2.94% | 1.14% |
| CC1(C(=O)NC2CCCCC2)Cn2c(cc3sccc32)C(=O)N1Cc1ccccc1Cl (centres undefined) | -2.62% | 0.845 | 3.88% | 4.31% | -2.1% |
| O=C(CC1CCCCC1)N1CCCC1c1nncn1Cc1ccncc1 (centres undefined) | 1.66% | -7.18 | 2.47% | -4.31% | 1.11% |
| CN(Cc1ccccc1C(F)(F)F)S(C)(=O)=O | -5.29% | -6.93 | -2.46% | -16.6% | -10.9% |
| O=C(NCc1cccnc1)c1ccc2c(=O)nc3c(-c4ccccc4)n[nH]n3c2c1 | -10.5% | 0.976 | -1.64% | -1.75% | -4.09% |
| Cc1ccc(S(=O)(=O)N[C@@H](Cc2ccccc2)C(=O)CCl)cc1 | -22.3% | 13.6 | 2.23% | -4.96% | 9.54% |
| CC(C)(OCc1nn(Cc2ccccc2)c2ccccc12)C(=O)O | 5.06% | -1.9 | 6.63% | -16% | -1.1% |
| COCCN1C(=O)C(CC(=O)O)=C2CCCCC21 (centres undefined) | -2.72% | -2.28 | -1.74% | -8.12% | 2.06% |
| CC(C)Cn1c(=O)c2ccc(C(=O)NC(C)C)cc2n2c(=O)n(CC(=O)N(C)c3ccc(F)cc3)nc12 | -3.5% | 0.035 | 1.91% | -8.81% | -2.99% |
| CC(=O)N1CCC(C2CCN(C(C)=O)C2)CC1 (centres undefined) | -1.17% | 1.79 | 0.158% | -2.97% | -3.45% |
| O=C(O)c1ccc(O)c2ncc(N3CCCN(CCc4cccc5ccccc45)CC3)cc12 | -19.4% and -2.76% | 1.63 | -3.71% and -4.58% | -8.77% and -24.3% | -83.3% and -71.8% |
| CC1(C(=O)NCc2ccccc2)Cn2nc(-c3ccccc3)cc2C(=O)N1C1CC1 (centres undefined) | -0.961% | -0.986 | -5.79% | -7% | -4.29% |
| CC1(CO)CC(O)C2(C)CCC3(C)C(=CCC4C5(C=O)CCC(OC6OC(C(=O)O)C(O)C(O)C6OC6OC(C(=O)O)C(O)C(O)C6O)C(C)(C)C5CCC43C)C2C1 (centres undefined) | 3.42% | 1.52 | 8.79% | -8.35% | 2.87% |

Source: PubChem BioAssay AID1745853 (National Center for Advancing Translational Sciences (NCATS), 2022)
